From the supplement of paper PMC8728848
Some of the results follow.

Experiments:
Experiment in all cases: glycan array binding signal (z-score within array); higher = stronger binding
Settings in all cases: glycan notation: IUPAC condensed, linker removed
Fuc(a1-2)Gal = target: Fuc(a1-2)Gal
In short: (§1)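 The binding signal is a Z-score computed within each array and averaged over linkers. Arrays of the same protein sequence at different concentrations or buffers were also averaged together. Data originate from 3228 arrays in the Consortium for Functional Glycomics database, kept only where the protein sequence was available.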

Fuc(a1-2)Gal(b1-3)GalNAc = target: Fuc(a1-2)Gal(b1-3)GalNAc
In short: as §1

[1] = target: Fuc(a1-2)Gal(b1-3)GalNAc(a1-3)[Fuc(a1-2)]Gal(b1-4)Glc
In short: as §1

[2] = target: Fuc(a1-2)Gal(b1-3)GalNAc(a1-3)[Fuc(a1-2)]Gal(b1-4)GlcNAc
In short: as §1

[3] = target: Fuc(a1-2)Gal(b1-3)GalNAc(b1-3)Gal
In short: as §1

[4] = target: Fuc(a1-2)Gal(b1-3)GalNAc(b1-3)Gal(a1-4)Gal(b1-4)Glc
In short: as §1

[5] = target: Fuc(a1-2)Gal(b1-3)GalNAc(b1-4)[Neu5Ac(a2-3)]Gal(b1-4)Glc
In short: as §1

Fuc(a1-2)Gal(b1-3)GlcNAc = target: Fuc(a1-2)Gal(b1-3)GlcNAc
In short: as §1

[6] = target: Fuc(a1-2)Gal(b1-3)GlcNAc(b1-2)Man(a1-3)[Fuc(a1-2)Gal(b1-3)GlcNAc(b1-2)Man(a1-6)]Man(b1-4)GlcNAc(b1-4)GlcNAc
In short: as §1

[7] = target: Fuc(a1-2)Gal(b1-3)GlcNAc(b1-2)Man(a1-3)[Fuc(a1-2)Gal(b1-3)GlcNAc(b1-2)Man(a1-6)]Man(b1-4)GlcNAc(b1-4)[Fuc(a1-6)]GlcNAc
In short: as §1

[8] = target: Fuc(a1-2)Gal(b1-3)GlcNAc(b1-3)Gal(b1-4)Glc
In short: as §1

[9] = target: Fuc(a1-2)Gal(b1-3)GlcNAc(b1-3)GalNAc
In short: as §1

[10] = target: Fuc(a1-2)Gal(b1-3)GlcNAc(b1-3)[Fuc(a1-2)Gal(b1-3)GlcNAc(b1-6)]GalNAc
In short: as §1

[11] = target: Fuc(a1-2)Gal(b1-3)GlcNAc(b1-3)[Gal(b1-4)GlcNAc(b1-6)]Gal(b1-4)Glc
In short: as §1

[12] = target: Fuc(a1-2)Gal(b1-3)GlcNAc(b1-3)[Neu5Ac(a2-6)Gal(b1-4)GlcNAc(b1-6)]Gal(b1-4)Glc
In short: as §1

[13] = target: Fuc(a1-2)Gal(b1-3)GlcNAc6S
In short: as §1

[14] = target: Fuc(a1-2)Gal(b1-3)[Fuc(a1-4)]GlcNAc
In short: as §1

[15] = target: Fuc(a1-2)Gal(b1-3)[Fuc(a1-4)]GlcNAc(b1-2)Man(a1-3)[Fuc(a1-2)Gal(b1-3)[Fuc(a1-4)]GlcNAc(b1-2)Man(a1-3)]Man(b1-4)GlcNAc(b1-4)GlcNAc
In short: as §1

[16] = target: Fuc(a1-2)Gal(b1-3)[Fuc(a1-4)]GlcNAc(b1-2)Man(a1-3)[Fuc(a1-2)Gal(b1-3)[Fuc(a1-4)]GlcNAc(b1-2)Man(a1-6)]Man(b1-4)GlcNAc(b1-4)[Fuc(a1-6)]GlcNAc(b1-4)[Fuc(a1-6)]GlcNAc
In short: as §1

[17] = target: Fuc(a1-2)Gal(b1-3)[Fuc(a1-4)]GlcNAc(b1-3)[Fuc(a1-3)[Gal(b1-4)]GlcNAc(b1-6)]Gal(b1-4)Glc
In short: as §1

[18] = target: Fuc(a1-2)Gal(b1-3)[Fuc(a1-4)]GlcNAc(b1-3)[Gal(b1-4)GlcNAc(b1-6)]Gal(b1-4)Glc
In short: as §1

Fuc(a1-2)Gal(b1-4)Glc = target: Fuc(a1-2)Gal(b1-4)Glc
In short: as §1

Fuc(a1-2)Gal(b1-4)Glc6S = target: Fuc(a1-2)Gal(b1-4)Glc6S
In short: as §1

Fuc(a1-2)Gal(b1-4)GlcNAc = target: Fuc(a1-2)Gal(b1-4)GlcNAc
In short: as §1

[19] = target: Fuc(a1-2)Gal(b1-4)GlcNAc(b1-2)Man
In short: as §1

[20] = target: Fuc(a1-2)Gal(b1-4)GlcNAc(b1-2)Man(a1-3)[Fuc(a1-2)Gal(b1-4)GlcNAc(b1-2)Man(a1-6)]Man(b1-4)GlcNAc(b1-4)GlcNAc
In short: as §1

[21] = target: Fuc(a1-2)Gal(b1-4)GlcNAc(b1-2)Man(a1-3)[Fuc(a1-2)Gal(b1-4)GlcNAc(b1-2)Man(a1-6)]Man(b1-4)GlcNAc(b1-4)[Fuc(a1-6)]GlcNAc
In short: as §1

[22] = target: Fuc(a1-2)Gal(b1-4)GlcNAc(b1-2)[Fuc(a1-2)Gal(b1-4)GlcNAc(b1-4)]Man(a1-3)[Fuc(a1-2)Gal(b1-4)GlcNAc(b1-2)Man(a1-6)]Man(b1-4)GlcNAc(b1-4)GlcNAc
In short: as §1

[23] = target: Fuc(a1-2)Gal(b1-4)GlcNAc(b1-3)Gal(b1-4)GlcNAc
In short: as §1

[24] = target: Fuc(a1-2)Gal(b1-4)GlcNAc(b1-3)Gal(b1-4)GlcNAc(b1-2)Man(a1-3)[Fuc(a1-2)Gal(b1-4)GlcNAc(b1-3)Gal(b1-4)GlcNAc(b1-2)Man(a1-6)]Man(b1-4)GlcNAc(b1-4)GlcNAc
In short: as §1

[25] = target: Fuc(a1-2)Gal(b1-4)GlcNAc(b1-3)Gal(b1-4)GlcNAc(b1-3)Gal(b1-4)GlcNAc
In short: as §1

[26] = target: Fuc(a1-2)Gal(b1-4)GlcNAc(b1-3)GalNAc
In short: as §1

[27] = target: Fuc(a1-2)Gal(b1-4)GlcNAc(b1-3)[Fuc(a1-2)Gal(b1-4)GlcNAc(b1-6)]GalNAc
In short: as §1

[28] = target: Fuc(a1-2)Gal(b1-4)GlcNAc(b1-3)[Fuc(a1-3)[Gal(b1-4)]GlcNAc(b1-6)]Gal(b1-4)Glc
In short: as §1

[29] = target: Fuc(a1-2)Gal(b1-4)GlcNAc(b1-6)GalNAc
In short: as §1

[30] = target: Fuc(a1-2)Gal(b1-4)GlcNAc6S
In short: as §1

[31] = target: Fuc(a1-2)Gal(b1-4)[Fuc(a1-3)]GlcNAc
In short: as §1

[32] = target: Fuc(a1-2)Gal(b1-4)[Fuc(a1-3)]GlcNAc(b1-2)Man(a1-3)[Fuc(a1-2)Gal(b1-4)[Fuc(a1-3)]GlcNAc(b1-2)Man(a1-6)]Man(b1-4)GlcNAc(b1-4)[Fuc(a1-6)]GlcNAc
In short: as §1

[33] = target: Fuc(a1-2)Gal(b1-4)[Fuc(a1-3)]GlcNAc(b1-2)[Fuc(a1-2)Gal(b1-4)[Fuc(a1-3)]GlcNAc(b1-4)]Man(a1-3)[Fuc(a1-2)Gal(b1-4)[Fuc(a1-3)]GlcNAc(b1-2)Man(a1-6)]Man(b1-4)GlcNAc(b1-4)GlcNAc
In short: as §1

[34] = target: Fuc(a1-2)Gal(b1-4)[Fuc(a1-3)]GlcNAc(b1-3)Gal(b1-4)[Fuc(a1-3)]GlcNAc
In short: as §1

[35] = target: Fuc(a1-2)Gal(b1-4)[Fuc(a1-3)]GlcNAc(b1-3)Gal(b1-4)[Fuc(a1-3)]GlcNAc(b1-3)Gal(b1-4)[Fuc(a1-3)]GlcNAc
In short: as §1

[36] = target: Fuc(a1-2)Gal(b1-4)[Fuc(a1-3)]GlcNAc(b1-3)GalNAc
In short: as §1

[37] = target: Fuc(a1-2)Gal(b1-4)[Fuc(a1-3)]GlcNAc(b1-3)[Neu5Ac(a2-6)Gal(b1-4)GlcNAc(b1-6)]Gal(b1-4)Glc
In short: as §1

[38] = target: Fuc(a1-2)Gal3S(b1-4)GlcNAc
In short: as §1

[39] = target: Fuc(a1-2)Gal6S(b1-3)GlcNAc
In short: as §1

B1: AT1G15820(NC) (Arabidopsis thaliana) (protein)
chain: MAMAVSGAVLSGLGSSFLTGGKRGATALASGVGDAIAPFSFGSLLGTQLLLMGWVESKRWVDFFNPDSQSVEWATPWSKTAENFANYTGDQGYPGGRFFDPLGLAGKNRDGVYEPDFEKLERLKLAEIKHSRLAMVAMLIFYFEAGQGKTPLGALGL
Fuc(a1-2)Gal
  glycan array binding signal (z-score): 4.29
Fuc(a1-2)Gal(b1-3)GalNAc
  glycan array binding signal (z-score): -0.293
[1]
  glycan array binding signal (z-score): -0.296
[2]
  glycan array binding signal (z-score): -0.041
[3]
  glycan array binding signal (z-score): 1.29
[4]
  glycan array binding signal (z-score): -0.533
[5]
  glycan array binding signal (z-score): -0.345
Fuc(a1-2)Gal(b1-3)GlcNAc
  glycan array binding signal (z-score): -0.076
[6]
  glycan array binding signal (z-score): -0.208
[7]
  glycan array binding signal (z-score): 3.01
[8]
  glycan array binding signal (z-score): -0.235
[9]
  glycan array binding signal (z-score): 1.63
[10]
  glycan array binding signal (z-score): -0.452
[11]
  glycan array binding signal (z-score): -0.55
[12]
  glycan array binding signal (z-score): -0.346
[13]
  glycan array binding signal (z-score): -0.5
[14]
  glycan array binding signal (z-score): -0.307
[15]
  glycan array binding signal (z-score): -0.086
[16]
  glycan array binding signal (z-score): -0.234
[17]
  glycan array binding signal (z-score): -0.332
[18]
  glycan array binding signal (z-score): -0.377
Fuc(a1-2)Gal(b1-4)Glc
  glycan array binding signal (z-score): -0.522
Fuc(a1-2)Gal(b1-4)Glc6S
  glycan array binding signal (z-score): -0.066
Fuc(a1-2)Gal(b1-4)GlcNAc
  glycan array binding signal (z-score): -0.457
[19]
  glycan array binding signal (z-score): 0.457
[20]
  glycan array binding signal (z-score): 0.304
[21]
  glycan array binding signal (z-score): -0.145
[22]
  glycan array binding signal (z-score): -0.399
[23]
  glycan array binding signal (z-score): -0.234
[24]
  glycan array binding signal (z-score): -0.445
[25]
  glycan array binding signal (z-score): -0.439
[26]
  glycan array binding signal (z-score): -0.236
[27]
  glycan array binding signal (z-score): -0.499
[28]
  glycan array binding signal (z-score): -0.22
[29]
  glycan array binding signal (z-score): -0.346
[30]
  glycan array binding signal (z-score): -0.752
[31]
  glycan array binding signal (z-score): -0.131
[32]
  glycan array binding signal (z-score): -0.351
[33]
  glycan array binding signal (z-score): -0.506
[34]
  glycan array binding signal (z-score): -0.174
[35]
  glycan array binding signal (z-score): -0.429
[36]
  glycan array binding signal (z-score): 1.13
[37]
  glycan array binding signal (z-score): -0.258
[38]
  glycan array binding signal (z-score): -0.477
[39]
  glycan array binding signal (z-score): -0.362
